Experimental data from US12221481B2, “CD19 binding molecules and uses thereof” (Novartis AG, priority 2019, dated 2025).

B1: NEG258-based BBM: BBM of Example 1A: anti-CD19 Fab with NEG258 variable regions and CD3hi anti-CD3 scFv, knob-into-hole hIgG1 (antibody)
heavy: QVQLVQSGAEVKKPGASVKVSCKASGYTFTTYWIQWVRQAPGQRLEWMGAVYPGDADTRYTQKFQGRVTLTADRSASTAYMELSSLRSEDTAVYYCGRDAGLEYYALDYWGQGTLVTVSSASTKGPSVFPLAPSSKSTSGGTAALGCLVKDYFPEPVTVSWNSGALTSGVHTFPAVLQSSGLYSLSSVVTVPSSSLGTQTYICNVNHKPSNTKVDKRVEPKSCDKTHTCPPCPAPELLGGPSVFLFPPKPKDTLMISRTPEVTCVVVAVSHEDPEVKFNWYVDGVEVHNAKTKPREEQYASTYRVVSVLTVLHQDWLNGKEYKCKVSNKALAAPIEKTISKAKGQPREPQVCTLPPSREEMTKNQVSLSCAVKGFYPSDIAVEWESNGQPENNYKTTPPVLDSDGSFFLVSKLTVDKSRWQQGNVFSCSVMHEALHNHYTQKSLSLSPGK
light: EIVMTQSPATLSVSPGERATLSCRASQDVGTAVAWYQQKPGQAPRLLIYWASTRHTGIPARFSGSGSGTEFTLTISSLQSEDFAVYFCQQYANFPLYTFGQGTKLEIKRTVAAPSVFIFPPSDEQLKSGTASVVCLLNNFYPREAKVQWKVDNALQSGNSQESVTEQDSKDSTYSLSSTLTLSKADYEKHKVYACEVTHQGLSSPVTKSFNRGEC
scFv: EVQLVESGGGLVQPGGSLKLSCAASGFTFNTYAMNWVRQASGKGLEWVGRIRSKYNNYATYYADSVKDRFTISRDDSKSTLYLQMNSLKTEDTAVYYCVRHGNFGNSYVSWFAYWGQGTLVTVSSGGGGSGGGGSGGGGSGGGGSQAVVTQEPSLTVSPGGTVTLTCRSSTGAVTTSNYANWVQQKPGQAPRGLIGGTNKRAPWTPARFSGSLLGDKAALTLSGAQPEDEAEYFCALWYSNLWVFGGGTKLTVLGGGGSDKTHTCPPCPAPELLGGPSVFLFPPKPKDTLMISRTPEVTCVVVAVSHEDPEVKFNWYVDGVEVHNAKTKPREEQYASTYRVVSVLTVLHQDWLNGKEYKCKVSNKALAAPIEKTISKAKGQPREPQVYTLPPCREEMTKNQVSLWCLVKGFYPSDIAVEWESNGQPENNYKTTPPVLDSDGSFFLYSKLTVDKSRWQQGNVFSCSVMHEALHNRYTQKSLSLSPGK
B2: NEG218-based BBM: BBM of Example 1A: anti-CD19 Fab with NEG218 variable regions and CD3hi anti-CD3 scFv, knob-into-hole hIgG1 (antibody)
heavy: EVQLVQSGAEVKKPGESLKISCKASGYSFTNYWMNWVRQMPGKGLEWMGMIHPSDSEIRLNQKFQGQVTLSVDKSIGTAYMQWSSLKASDTAMYYCSRWYYLSSPMDYWGQGTTVTVSSASTKGPSVFPLAPSSKSTSGGTAALGCLVKDYFPEPVTVSWNSGALTSGVHTFPAVLQSSGLYSLSSVVTVPSSSLGTQTYICNVNHKPSNTKVDKRVEPKSCDKTHTCPPCPAPELLGGPSVFLFPPKPKDTLMISRTPEVTCVVVAVSHEDPEVKFNWYVDGVEVHNAKTKPREEQYASTYRVVSVLTVLHQDWLNGKEYKCKVSNKALAAPIEKTISKAKGQPREPQVCTLPPSREEMTKNQVSLSCAVKGFYPSDIAVEWESNGQPENNYKTTPPVLDSDGSFFLVSKLTVDKSRWQQGNVFSCSVMHEALHNHYTQKSLSLSPGK
light: EIVMTQSPATLSVSPGERATLSCRASQDVGTAVAWYQQKPGQAPRLLIYWASTRHTGIPARFSGSGSGTEFTLTISSLQSEDFAVYFCQQYSSYPYTFGQGTKLEIKRTVAAPSVFIFPPSDEQLKSGTASVVCLLNNFYPREAKVQWKVDNALQSGNSQESVTEQDSKDSTYSLSSTLTLSKADYEKHKVYACEVTHQGLSSPVTKSFNRGEC
scFv: B1 scFv
B3: CD3hi-TSP1 (antibody)
heavy: QVQLVQSGAEVKKPGASVKVSCKASGYTFTTYWIQWVRQAPGQRLEWMGAVYPGDADTRYTQKFQGRVTLTADRSASTAYMELSSLRSEDTAVYYCGRDAGLEYYALDYWGQGTLVTVSSASTKGPSVFPLAPSSKSTSGGTAALGCLVKDYFPEPVTVSWNSGALTSGVHTFPAVLQSSGLYSLSSVVTVPSSSLGTQTYICNVNHKPSNTKVDKRVEPKSCGGGGSGGGGSEVQLVESGGGLVQPGGSLKLSCAASGFTFNTYAMNWVRQASGKGLEWVGRIRSKYNNYATYYADSVKDRFTISRDDSKSTLYLQMNSLKTEDTAVYYCVRHGNFGNSYVSWFAYWGQGTLVTVSSGGGGSGGGGSGGGGSGGGGSQAVVTQEPSLTVSPGGTVTLTCRSSTGAVTTSNYANWVQQKPGQAPRGLIGGTNKRAPWTPARFSGSLLGDKAALTLSGAQPEDEAEYFCALWYSNLWVFGGGTKLTVLGGGGSDKTHTCPPCPAPELLGGPSVFLFPPKPKDTLMISRTPEVTCVVVAVSHEDPEVKFNWYVDGVEVHNAKTKPREEQYASTYRVVSVLTVLHQDWLNGKEYKCKVSNKALAAPIEKTISKAKGQPREPQVCTLPPSREEMTKNQVSLSCAVKGFYPSDIAVEWESNGQPENNYKTTPPVLDSDGSFFLVSKLTVDKSRWQQGNVFSCSVMHEALHNHYTQKSLSLSPGK
light: B1 light
chain: SQQIYGVVYGNVTFHVPSNVPLKEVLWKKQKDKVAELENSEFRAFSSFKNRVYLDTVSGSLTIYNLTSSDEDEYEMESPNITDTMKFFLYVLESGGGGSDKTHTCPPCPAPELLGGPSVFLFPPKPKDTLMISRTPEVTCVVVAVSHEDPEVKFNWYVDGVEVHNAKTKPREEQYASTYRVVSVLTVLHQDWLNGKEYKCKVSNKALAAPIEKTISKAKGQPREPQVYTLPPCREEMTKNQVSLWCLVKGFYPSDIAVEWESNGQPENNYKTTPPVLDSDGSFFLYSKLTVDKSRWQQGNVFSCSVMHEALHNHYTQKSLSLSPGK

Key:
Karpas422-luc cells = assay: RTCC assay with BBMs against Karpas422-luc cells; format: cell-based, human; details: expanded T cells, E:T 3:1, 24 h
Procedure: (§1) A RTCC assay with the BBMs of Example 1A was performed to measure the ability of the BBMs to elicit RTCC against CD19+ Nalm6-luc and Karpas422-luc cells. Nalm-6 is a human B cell precursor leukemia cell line and Karpas422 is a human B-cell non-hodgkin lymphoma cell line. Briefly, Nalm6 and Karpas422 cells engineered to express the firefly luciferase reporter gene were cultured in RPMI1640 culture media with 10% fetal bovine serum (FBS). 10,000 target cells with serial diluted BBMs or gH isotype antibody control (αgH-CD3hi) were seeded on 384-well flat-bottom microtiter plate. Primary human T cells were isolated from cryopreserved peripheral blood mononuclear cells (PBMCs) and expanded using anti-CD3 and anti-CD28 dynabeads (Thermo fisher, catalog #11131D) and subsequently cryopreserved. Expanded T cells were thawed and aliquoted to the plate to achieve an effector cell (i.e., T cell) to target cell (i.e., cancer cell) ratio (E:T ratio) of 3:1. Plates were incubated in a 37° C. incubator with 5% CO2 overnight. Following the co-incubation, Bright Glo (Promega, catalog #E2620) was added to all wells and the luminescence signal was subsequently measured on an Envision (Perkin Elmer). Target cells with Bright Glo served as maximal signal. The percent RTCC of target cells was calculated using the following formula: [100−(sample/maximal signal)*100%].

Nalm6-luc cells = assay: RTCC assay with BBMs against Nalm6-luc cells; format: cell-based, human; details: expanded T cells, E:T 3:1, 24 h
Procedure: as §1

T cells = assay: T cell proliferation induced by BBMs (Cell Trace Violet dilution); format: cell-based, human; details: co-culture with Karpas422 or Nalm-6 target cells, E:T 1:1, 96 hrs
Procedure: The BBMs described in Example 1A, containing the variable regions of NEG258 and NEG218, were evaluated for their ability to induce T cell proliferation upon co-culture with CD19 expressing target cells. Briefly, Karpas422 and Nalm-6 target cells stably expressing firefly luciferase were irradiated on the day of the assay and plated at a density of 60,000 cells per well in a Costar 96 well plate (Corning, Cat #3904) in T Cell Media (TCM) [RPMI-1640 (ThermoFisher Scientific, Cat #11875-085), 10% FBS (Seradigm, Cat #1500-500), 1% L-Glutamine (Thermo Fisher Scientific, Cat #25830-081), 1% Non Essential Amino Acids (Thermo Fisher Scientific, Cat #11140-050), 1% Pen/Strep (Thermo Fisher Scientific, Cat #15070063), 1% HEPES (Thermo Fisher Scientific, Cat #15630080), Sodium Pyruvate (Thermo Fisher Scientific, Cat #11360-070), 0.1% Beta-mercaptoethanol (Thermo Fisher Scientific, Cat #21985-023)]. Peripheral blood mononuclear cells (PBMCs) previously isolated from Leukopak donors (Hemacare) and cryopreserved were thawed and Pan T cells were isolated by negative selection using the Pan T cell Isolation Kit, human [Miltenyi Biotec, Cat #130-096-535] following the manufacturer's protocol. Isolated T cells were labelled with 5 μM Cell Trace Violet (CTV) (Thermo Fisher Scientific, Cat #C34557) following the manufacturer's protocol and 60,000 CTV labeled T cells were co-cultured with 60,000 target cells to achieve an E:T ratio of 1:1. A dilution series of the NEG258- and NEG218-based BBMs and control binding molecules (αgH-CD3hi) ranging from 16 pM-10,000 pM was added to cells and the plates were incubated in a 5% CO2, 37° C. incubator for 96 hrs. […] The samples were then run on BD LSR Fortessa and analyzed using FlowJo to determine % proliferated CD3+ T cells based on CD3 staining and dilution of Cell Trace Violet dye.

[1] = system: OCI-LY-19 DLBCL subcutaneous tumor; assay: OCI-LY-19 DLBCL subcutaneous tumor model in huCD34+ NSG mice, single dose, dose range finding (Example 30); details: 0.01 mg/kg, single dose IV

| Molecule | RTCC activity (Karpas422-luc cells) | RTCC activity (Nalm6-luc cells) | T cell proliferation (% proliferated CD3+ T cells) (T cells) | T cell proliferation, potency compared between BBMs (T cells) | Δ Body weight from initial (Mean ± SEM) Day 24 [1] [%] | Δ Tumor burden from initial (Mean ± SEM) Day 24 [1] [mm^3] | ΔT/ΔC ([1]; Day 24) [%] |
| --- | --- | --- | --- | --- | --- | --- | --- |
| B1 | mediated RTCC activity | mediated RTCC activity | induced proliferation of T cells | more potent activity than the NEG218-based BBM |  |  |  |
| B2 | mediated RTCC activity | mediated RTCC activity | induced proliferation of T cells |  |  |  |  |
| B3 |  |  |  |  | 4.54 ± 2.25 | 1110.7 ± 201.7 | 100 |
